Data from patent US20230287125A1 (LEPU BIOPHARMA, published 2023).

Legend:
[1] = target: T1, human PD-L1-his tag protein (human, UniProt Q9NZQ7 in part); assay: SPR (Biacore T200), molecule captured on Protein A chip, PD-L1-his injected
T1 construct: also called human PD-L1-His protein; recombinant PD-L1 protein; not shown: his tag
Description: A serial dilution of human PD-L1-his tag protein was injected over captured antibody for 2 mins at a flow rate of 30 μl/min. The antigen was allowed to dissociate for 1500 s. All the experiments were carried out on a Biacore T200. Data analysis was carried out using Biacore T200 evaluation software.

human TGF-β1 protein [2] = target: T2, human TGF-β1 protein (human, UniProt P01137 in part); assay: ELISA, molecule titrated on coated human TGF-β1, anti-human IgG Fc-HRP, OD 450nm
T2 construct: also called human TGF-β1 protein (Acro, TG1-H4212); recombinant human TGF-β1

human TGF-β1 protein [3] = target: T2, human TGF-β1 protein; assay: ELISA, molecule titrated on coated human TGF-β1, OD450 nm; left panel
T2 sequence (P01137 279-390 limits assumed): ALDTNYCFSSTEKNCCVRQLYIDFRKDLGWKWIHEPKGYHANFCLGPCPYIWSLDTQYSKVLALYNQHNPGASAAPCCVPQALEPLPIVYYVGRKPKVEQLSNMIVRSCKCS
From the text: (§1) After washing, the plates were developed with TMB substrate and analyzed by spectrophotometer at OD 450 nm.

human TGF-β protein = human TGF-β protein (human, UniProt P01137 in part, The mature TGF-β1 is a disulfide-linked homodimer; one protomer is given.); assay: cell-based or functional assay
Chain of human TGF-β protein (P01137 279-390 limits assumed): as above

human TGF-β1 protein [4] = target: T2, human TGF-β1 protein; assay: ELISA, molecule titrated on coated human TGF-β1, OD 450nm; right panel
From the text: as §1

T1 sequence (Q9NZQ7 19-238 limits assumed): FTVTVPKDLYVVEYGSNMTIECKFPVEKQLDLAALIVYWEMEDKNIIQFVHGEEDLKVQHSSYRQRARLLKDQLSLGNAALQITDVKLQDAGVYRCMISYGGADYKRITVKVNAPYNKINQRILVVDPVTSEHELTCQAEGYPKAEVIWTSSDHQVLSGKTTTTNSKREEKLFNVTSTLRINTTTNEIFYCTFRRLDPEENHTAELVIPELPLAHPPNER

| Kd [1] [pM] | koff [1] [s⁻¹] | kon [1] [M⁻¹ s⁻¹] | EC50 (human TGF-β1 protein [2]) [pM] | EC50 (human TGF-β1 protein [3]) [pM] | IC50, TGF-β SBE luciferase reporter assay in 293 cells (human TGF-β protein) [pM] | EC50 (human TGF-β1 protein [4]) [pM] | Binder |
| --- | --- | --- | --- | --- | --- | --- | --- |
|  |  |  | 328 |  |  | 944 | LP008-02-6 (other, modified LP008-02; also called Molecule 6) heavy: EVQLVQSGAEVKKPGASVKVSCKASGYTFTDFWVSWVRQAPGQGLEWMGEIYPNSGVSRYNEKFKGRVTMTVDKSISTAYMELSRLRSDDTAVYYCTKYFGYTYWFGYWGQGTLVTVSSASTKGPSVFPLAPSSKSTSGGTAALGCLVKDYFPEPVTVSWNSGALTSGVHTFPAVLQSSGLYSLSSVVTVPSSSLGTQTYICNVNHKPSNTKVDKRV[not shown - human IgG1 Fc]SGGGGSGGGGSGGGGSGGGGSGGGGSHYPQLCKFCDVRFSTCDNQKSCMSNCSITSICEKPQEVCVAVWRKNDENITLETVCHDPKLPYHDFILEDAASPKCIMKEKKKPGETFFMCSCSSDECNDNIIFSEEYNTSNPD light: DIQMTQSPSSLSASVGDRVTITCRASKSVSTYMHWYQQKPGKQPKLLIYSASHLESGVPSRFSGSGSGTDFTLTISSLQPEDFATYYCQQSNELPVTFGGGTKVEIKRTVAAPSVFIFPPSDEQLKSGTASVVCLLNNFYPREAKVQWKVDNALQSGNSQESVTEQDSKDSTYSLSSTLTLSKADYEKHKVYACEVTHQGLSSPVTKSFNRGEC |
|  |  |  | 280 | 768 | 164 |  | LP008-02-3 (other, modified LP008-02; also called Molecule 3) heavy: EVQLVQSGAEVKKPGASVKVSCKASGYTFTDFWVSWVRQAPGQGLEWMGEIYPNSGVSRYNEKFKGRVTMTVDKSISTAYMELSRLRSDDTAVYYCTKYFGYTYWFGYWGQGTLVTVSSASTKGPSVFPLAPSSKSTSGGTAALGCLVKDYFPEPVTVSWNSGALTSGVHTFPAVLQSSGLYSLSSVVTVPSSSLGTQTYICNVNHKPSNTKVDKRV[not shown - human IgG1 Fc]GGGGSGGGGSGGGGSGGGGSGGGGSTAGHTQTSTGGGAITTGTSGAGHGPQLCKFCDVRFSTCDNQKSCMSNCSITSICEKPQEVCVAVWRKNDENITLETVCHDPKLPYHDFILEDAASPKCIMKEKKKPGETFFMCSCSSDECNDNIIFSEEYNTSNPD light: DIQMTQSPSSLSASVGDRVTITCRASKSVSTYMHWYQQKPGKQPKLLIYSASHLESGVPSRFSGSGSGTDFTLTISSLQPEDFATYYCQQSNELPVTFGGGTKVEIKRTVAAPSVFIFPPSDEQLKSGTASVVCLLNNFYPREAKVQWKVDNALQSGNSQESVTEQDSKDSTYSLSSTLTLSKADYEKHKVYACEVTHQGLSSPVTKSFNRGEC |

The remaining lines, values behind:

| Binder | Kd [1] [pM] | koff [1] [s⁻¹] | kon [1] [M⁻¹ s⁻¹] | EC50 (human TGF-β1 protein [2]) [pM] | EC50 (human TGF-β1 protein [3]) [pM] | IC50, TGF-β SBE luciferase reporter assay in 293 cells (human TGF-β protein) [pM] | EC50 (human TGF-β1 protein [4]) [pM] |
| --- | --- | --- | --- | --- | --- | --- | --- |
| LP008-06a (other, bifunctional anti-PD-L1 antibody / TGF-β RII extracellular domain fusion protein) heavy: EVQLVESGGGLVKPGGSLRLSCAASGFTFSNYWMTWIRQAPGKGLEWVASITNTGSSTFYPDSVKGRFTISRDNAKNSLYLQMNSLRAEDTAVYYCTRDTTIAPFDYWGQGTMVTVSSASTKGPSVFPLAPSSKSTSGGTAALGCLVKDYFPEPVTVSWNSGALTSGVHTFPAVLQSSGLYSLSSVVTVPSSSLGTQTYICNVNHKPSNTKVDKRV[not shown - human IgG1 Fc]GGGGSGGGGSGGGGSGGGGSGIPPHVQKSVNNDMIVTDNNGAVKFPQLCKFCDVRFSTCDNQKSCMSNCSITSICEKPQEVCVAVWRKNDENITLETVCHDPKLPYHDFILEDAASPKCIMKEKKKPGETFFMCSCSSDECNDNIIFSEEYNTSNPD light: DIQMTQSPSSLSASVGDRVTITCKASQNLNEYLNWYQQKPGKAPKRLIYKTNTLQAGIPSRFSGSGSGTDYTLTISSLQPEDFATYYCSQYQSGNTFGQGTKLEIKRTVAAPSVFIFPPSDEQLKSGTASVVCLLNNFYPREAKVQWKVDNALQSGNSQESVTEQDSKDSTYSLSSTLTLSKADYEKHKVYACEVTHQGLSSPVTKSFNRGEC | 76.8 | 5.28e-05 | 686000 |  |  |  |  |
| LP008-06 (other, bifunctional anti-PD-L1 antibody / TGF-β RII extracellular domain fusion protein) heavy: EVQLVESGGGLVKPGGSLRLSCAASGFTFSNYWMTWIRQAPGKGLEWVASITNTGSSTFYPDSVKGRFTISRDNAKNSLYLQMNSLRAEDTAVYYCTRDTTIAPFDYWGQGTMVTVSSASTKGPSVFPLAPSSKSTSGGTAALGCLVKDYFPEPVTVSWNSGALTSGVHTFPAVLQSSGLYSLSSVVTVPSSSLGTQTYICNVNHKPSNTKVDKRV[not shown - human IgG1 Fc]GGGGSGGGGSGGGGSGGGGSGIPPHVQKSVNNDMIVTDNNGAVKFPQLCKFCDVRFSTCDNQKSCMSNCSITSICEKPQEVCVAVWRKNDENITLETVCHDPKLPYHDFILEDAASPKCIMKEKKKPGETFFMCSCSSDECNDNIIFSEEYNTSNPD light: DIQMTQSPSSLSASVGDRVTITCKASQNLNEYLNWYQQKPGKAPKRLIYKTNTLQAGIPSRFSGSGSGTDYTLTISSLQPEDFATYYCSQYNSGNTFGQGTKLEIKRTVAAPSVFIFPPSDEQLKSGTASVVCLLNNFYPREAKVQWKVDNALQSGNSQESVTEQDSKDSTYSLSSTLTLSKADYEKHKVYACEVTHQGLSSPVTKSFNRGEC | 75.6 | 5.92e-05 | 783000 |  |  |  |  |
| LP008-06a-DA (other, bifunctional anti-PD-L1 antibody / TGF-β RII extracellular domain fusion protein) heavy: EVQLVESGGGLVKPGGSLRLSCAASGFTFSNYWMTWIRQAPGKGLEWVASITNTGSSTFYPDAVKGRFTISRDNAKNSLYLQMNSLRAEDTAVYYCTRDTTIAPFDYWGQGTMVTVSSASTKGPSVFPLAPSSKSTSGGTAALGCLVKDYFPEPVTVSWNSGALTSGVHTFPAVLQSSGLYSLSSVVTVPSSSLGTQTYICNVNHKPSNTKVDKRV[not shown - human IgG1 Fc]GGGGSGGGGSGGGGSGGGGSGIPPHVQKSVNNDMIVTDNNGAVKFPQLCKFCDVRFSTCDNQKSCMSNCSITSICEKPQEVCVAVWRKNDENITLETVCHDPKLPYHDFILEDAASPKCIMKEKKKPGETFFMCSCSSDECNDNIIFSEEYNTSNPD light: DIQMTQSPSSLSASVGDRVTITCKASQNLNEYLNWYQQKPGKAPKRLIYKTNTLQAGIPSRFSGSGSGTDYTLTISSLQPEDFATYYCSQYQSGNTFGQGTKLEIKRTVAAPSVFIFPPSDEQLKSGTASVVCLLNNFYPREAKVQWKVDNALQSGNSQESVTEQDSKDSTYSLSSTLTLSKADYEKHKVYACEVTHQGLSSPVTKSFNRGEC | 72.5 | 4.8e-05 | 661000 |  |  |  |  |
| LP008-02-2 (other, modified LP008-02; also called Molecule 2) heavy: EVQLVQSGAEVKKPGASVKVSCKASGYTFTDFWVSWVRQAPGQGLEWMGEIYPNSGVSRYNEKFKGRVTMTVDKSISTAYMELSRLRSDDTAVYYCTKYFGYTYWFGYWGQGTLVTVSSASTKGPSVFPLAPSSKSTSGGTAALGCLVKDYFPEPVTVSWNSGALTSGVHTFPAVLQSSGLYSLSSVVTVPSSSLGTQTYICNVNHKPSNTKVDKRV[not shown - human IgG1 Fc]GGGGSTAGHTQTSTGGGAITTGTSGAGHGPQLCKFCDVRFSTCDNQKSCMSNCSITSICEKPQEVCVAVWRKNDENITLETVCHDPKLPYHDFILEDAASPKCIMKEKKKPGETFFMCSCSSDECNDNIIFSEEYNTSNPD light: DIQMTQSPSSLSASVGDRVTITCRASKSVSTYMHWYQQKPGKQPKLLIYSASHLESGVPSRFSGSGSGTDFTLTISSLQPEDFATYYCQQSNELPVTFGGGTKVEIKRTVAAPSVFIFPPSDEQLKSGTASVVCLLNNFYPREAKVQWKVDNALQSGNSQESVTEQDSKDSTYSLSSTLTLSKADYEKHKVYACEVTHQGLSSPVTKSFNRGEC |  |  |  | 278 | 767 | 144 |  |
| LP008-02-5 (other, modified LP008-02; also called Molecule 5) heavy: EVQLVQSGAEVKKPGASVKVSCKASGYTFTDFWVSWVRQAPGQGLEWMGEIYPNSGVSRYNEKFKGRVTMTVDKSISTAYMELSRLRSDDTAVYYCTKYFGYTYWFGYWGQGTLVTVSSASTKGPSVFPLAPSSKSTSGGTAALGCLVKDYFPEPVTVSWNSGALTSGVHTFPAVLQSSGLYSLSSVVTVPSSSLGTQTYICNVNHKPSNTKVDKRV[not shown - human IgG1 Fc]SGGGGSGGGGSGGGGSGGGGSGGGGSHYPQLCKFCDVRFSTCDNQKSCMSNCSITSICEKPQEVCVAVWRKNDENITLETVCHDPKLPYHDFILEDAASPKCIMKEKKKPGETFFMCSCSSDECNDNIIFS light: DIQMTQSPSSLSASVGDRVTITCRASKSVSTYMHWYQQKPGKQPKLLIYSASHLESGVPSRFSGSGSGTDFTLTISSLQPEDFATYYCQQSNELPVTFGGGTKVEIKRTVAAPSVFIFPPSDEQLKSGTASVVCLLNNFYPREAKVQWKVDNALQSGNSQESVTEQDSKDSTYSLSSTLTLSKADYEKHKVYACEVTHQGLSSPVTKSFNRGEC |  |  |  |  | 1340 |  |  |
| LP008-02-4 (other, modified LP008-02; also called Molecule 4) heavy: EVQLVQSGAEVKKPGASVKVSCKASGYTFTDFWVSWVRQAPGQGLEWMGEIYPNSGVSRYNEKFKGRVTMTVDKSISTAYMELSRLRSDDTAVYYCTKYFGYTYWFGYWGQGTLVTVSSASTKGPSVFPLAPSSKSTSGGTAALGCLVKDYFPEPVTVSWNSGALTSGVHTFPAVLQSSGLYSLSSVVTVPSSSLGTQTYICNVNHKPSNTKVDKRV[not shown - human IgG1 Fc]GGGGSGGGGSGGGGSGGGGSGGGGSTAGHTQTSTGGGAITTGTSGAGHGPQLCKFCDVRFSTCDNQKSCMSNCSITSICEKPQEVCVAVWRKNDENITLETVCHDPKLPYHDFILEDAASPKCIMKEKKKPGETFFMCSCSSDECNDNIIFS light: DIQMTQSPSSLSASVGDRVTITCRASKSVSTYMHWYQQKPGKQPKLLIYSASHLESGVPSRFSGSGSGTDFTLTISSLQPEDFATYYCQQSNELPVTFGGGTKVEIKRTVAAPSVFIFPPSDEQLKSGTASVVCLLNNFYPREAKVQWKVDNALQSGNSQESVTEQDSKDSTYSLSSTLTLSKADYEKHKVYACEVTHQGLSSPVTKSFNRGEC |  |  |  |  | 874 | 188 |  |
